The campaign covered roughly 310,000 compounds. About 14,000 (4.5%) showed an effect of 50% or more. The effect is printed as a negative number. The list shows a part of the results.
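Further: peak tail current of the secondary pulse compared with the same well before compound.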

The target of this assay is human ether-à-go-go-related gene (hERG) potassium channel (human, UniProt Q12809). Briefly: primary screen, population patch clamp on CHO cells stably expressing hERG.
Chain of human ether-à-go-go-related gene (hERG) potassium channel (Q12809 whole entry, looked up): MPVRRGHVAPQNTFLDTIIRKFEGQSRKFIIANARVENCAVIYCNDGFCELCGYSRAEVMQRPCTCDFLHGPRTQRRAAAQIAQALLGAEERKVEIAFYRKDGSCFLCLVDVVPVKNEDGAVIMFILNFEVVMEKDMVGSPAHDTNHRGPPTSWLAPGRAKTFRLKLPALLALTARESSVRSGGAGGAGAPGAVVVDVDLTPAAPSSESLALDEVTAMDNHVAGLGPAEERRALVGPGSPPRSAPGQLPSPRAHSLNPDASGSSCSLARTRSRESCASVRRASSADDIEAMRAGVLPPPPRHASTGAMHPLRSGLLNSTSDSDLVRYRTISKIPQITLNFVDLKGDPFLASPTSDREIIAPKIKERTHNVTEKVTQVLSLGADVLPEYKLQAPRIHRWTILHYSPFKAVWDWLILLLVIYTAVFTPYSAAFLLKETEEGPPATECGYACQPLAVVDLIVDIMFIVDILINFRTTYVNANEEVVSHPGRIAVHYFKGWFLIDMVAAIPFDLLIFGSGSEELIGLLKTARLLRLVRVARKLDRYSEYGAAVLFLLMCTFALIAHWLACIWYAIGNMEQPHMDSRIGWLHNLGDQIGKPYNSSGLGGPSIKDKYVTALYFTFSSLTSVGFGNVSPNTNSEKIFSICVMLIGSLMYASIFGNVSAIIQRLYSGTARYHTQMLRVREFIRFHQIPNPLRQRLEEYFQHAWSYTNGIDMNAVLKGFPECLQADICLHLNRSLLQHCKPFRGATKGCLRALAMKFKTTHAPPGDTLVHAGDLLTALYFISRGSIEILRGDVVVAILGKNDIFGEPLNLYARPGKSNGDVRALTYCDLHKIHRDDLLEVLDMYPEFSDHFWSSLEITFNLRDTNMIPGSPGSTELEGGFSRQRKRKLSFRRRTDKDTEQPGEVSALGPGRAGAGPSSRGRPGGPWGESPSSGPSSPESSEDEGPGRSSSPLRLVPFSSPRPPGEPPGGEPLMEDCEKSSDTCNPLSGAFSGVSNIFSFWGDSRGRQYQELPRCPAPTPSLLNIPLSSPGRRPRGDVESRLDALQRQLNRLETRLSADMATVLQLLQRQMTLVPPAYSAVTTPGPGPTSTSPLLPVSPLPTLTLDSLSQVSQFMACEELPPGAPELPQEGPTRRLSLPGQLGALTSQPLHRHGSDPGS
In the case of `O=C(NCc1cccnc1)NC1CCCN1S(=O)(=O)c1ccc(Cl)cc1` (stereo not shown), the “hERG current change (%, negative = inhibition) at 10uM” value was -14.2%.
The value for `Cc1ccccc1NC(=O)COC(=O)/C=C/c1cn(-c2ccccc2)nc1-c1cccnc1` was 9.19%; that for `CCOc1cccc2sc(NC(=O)CC)nc12` was 2.42%; that for `O=C(CN1C(=O)C2C3C=CC(C3)C2C1=O)NCCC1=CCCCC1` (stereo not shown) was -8.79%.
For the compound `O=C(/C=C/c1ccc(Br)cc1)NCc1cccs1`, the “hERG current change (%, negative = inhibition) at 10uM” value turned out to be 6.86%.
As for `O=C(NCCc1ccc(Cl)cc1)C1CCN(S(=O)(=O)c2ccc(-n3cnnn3)cc2)CC1`, the “hERG current change (%, negative = inhibition) at 10uM” value is -69%.
As for `CCOC(=O)c1c(-c2ccccc2)oc2ccc(O)cc12`, the figure is 19.8%.
As for `CCOC(=O)c1cc2c(=O)n3ccccc3nc2n(CCOC)c1=NC(=O)C(C)(C)C`, the figure is -4.45%.
As for `O=C1OCCN1CC(=O)N1CCc2c([nH]c3ccccc23)C1c1ccccn1` (stereo not shown), the figure is -3.43%; as for `CCCCCCCNC(=O)C1(CC2CC(c3cccc(Br)c3)=NO2)CCN(C(=O)OC(C)(C)C)CC1` (stereo not shown), 3.88%.
Regarding `Cc1ccccc1-n1c(C)cc(/C=N/Nc2ccc([N+](=O)[O-])cn2)c1C`, the “hERG current change (%, negative = inhibition) at 10uM” value came out at 17.4%.
Turning to `O=C(CN1C(=O)NC2(CCc3ccccc3C2)C1=O)NCc1ccco1` (stereo not shown), the “hERG current change (%, negative = inhibition) at 10uM” value was determined as 7.22%.
The value for `O=C(Nc1cccc(O)c1)C1CCCN1C(=O)OCc1ccccc1` (stereo not shown) was -7.35%; that for `CCc1ccc(NS(=O)(=O)c2c(C(=O)N3CCCCCC3)c(C)n(C)c2C)cc1` was 1.32%.
Turning to `O=C(c1ccccc1)c1cc[n+]([O-])cc1`, the “hERG current change (%, negative = inhibition) at 10uM” value came out at 1.18%.
The value for `CCn1c(CNC(=O)c2ccccc2F)nnc1SCC(=O)Nc1nncs1` was 4.52%.
As for `COCc1cc(=O)[nH]c(Nc2nc3ccccc3o2)n1`, the “hERG current change (%, negative = inhibition) at 10uM” value is -1.95%.
The value for `Clc1ccc2[nH]cc(-c3nnnn3-c3ccccc3)c2c1` was 2.38%.
The value for `CC1(C)CC(=O)C=C(NCC2CCCO2)C1` (stereo not shown) was 3.7%.
The value for `O=C(N/C(=C\c1ccco1)C(=O)N1CCCC(CO)C1)c1ccccc1` (stereo not shown) was 15.6%.
Take `Cc1ccc(NC2=NCCCS2)cc1Cl`: the “hERG current change (%, negative = inhibition) at 10uM” value is reported as 7.68%.
As for `CSCCC(NC(=O)c1ccccc1)C(=O)NCCCSc1ccccc1` (stereo not shown), the figure is -34.2%.
As for `O=C(CN1CCN(c2ccccn2)CC1)Nc1cccc(C(F)(F)F)c1`, the figure is -6.41%; as for `CCN(CC)CCNC(CC(=O)Nc1ccc(Cl)cc1Cl)C(=O)O` (stereo not shown), 8.31%.
As for `Fc1ccc(Oc2cnc3ccccc3n2)cc1`, the figure is -20%.
For the compound `COc1ccccc1N1CCN(C(=O)c2cccc(NC3=NC4CS(=O)(=O)CC4S3)c2)CC1` (stereo not shown), the “hERG current change (%, negative = inhibition) at 10uM” value was 15.6%.
Consider `CC1CC(=O)Nc2cc([N+](=O)[O-])ccc2N1` (stereo not shown), for which the “hERG current change (%, negative = inhibition) at 10uM” value was 12.1%.
As for `COc1ccc(C2NC3=C(CCCC3)C(C#N)(C#N)C2(C#N)C#N)cc1` (stereo not shown), the figure is 17.6%; as for `CC(=O)c1sc(NC(=O)COc2ccc(Cl)cc2Cl)nc1C`, 17.9%.
As for `Cc1ccc(S(=O)(=O)NCc2ccccc2)s1`, the figure is 11%; as for `CCC(=O)Nc1cc(C)c(NC(=O)C23CC4CC(CC(C4)C2)C3)cn1`, 8.35%; as for `COc1ccc([N+](=O)[O-])cc1NC(=O)CSc1ccc2ccccc2c1`, 12%.
The value for `COC(=O)[C@@H]1C[C@H]1[C@@H](NP(=O)(c1ccccc1)c1ccccc1)c1ccccc1` was 9.28%; that for `Cc1ccccc1CN1CCN(C(=O)CC(C)C)CC1` was 7.69%.
Turning to `COc1cccc(CNc2nc3ccccc3n2CCN2CCCCC2)c1`, the “hERG current change (%, negative = inhibition) at 10uM” value was -59.3%.
As for `Cc1cc(NC(=O)c2cccc(S(=O)(=O)Nc3cccc(C(=O)O)c3)c2)no1`, the figure is 13.2%.
As for `O=C(CCCOc1ccc(Cl)cc1Cl)Nc1ccccn1`, the figure is 24.2%.
The value for `Cn1c(=O)c2ncn(CC(=O)Nc3ccc(N4CCOCC4)cc3)c2n(C)c1=O` was 7.22%.
Take `Cc1ccc(-c2nn(-c3ccccc3)cc2/C=C(\C#N)C(=O)NCc2ccccc2)cc1`: the “hERG current change (%, negative = inhibition) at 10uM” value is listed as -7.27%.
As for `COc1ccc(OC)c(NC(=O)NCc2ccc(F)cc2)c1`, the figure is -15.9%; as for `COc1ccc(C)cc1NC(=O)CSc1ccc(-c2ccco2)nn1`, -0.864%; as for `CCN1C(=O)N(CC)C2NC(=S)NC21` (stereo not shown), 17.4%.
As for `COCCCn1c(C(=O)NCCC2=CCCCC2)cc2c(=O)n3ccccc3nc21`, the figure is -8.55%; as for `COc1ccccc1CNC(=S)Nc1ccc2nc(N3CCN(C)CC3)cc(C)c2c1`, -1.77%; as for `S=C(NC1CCCCC1)N1CCN(C2CCCCC2)CC1`, -15.4%.
As for `Cc1cccc(N(CC(=O)NCc2ccco2)C(=O)CNS(=O)(=O)c2ccc(F)cc2)c1`, the figure is 27.5%; as for `O=C(CSc1nnc(CNC(=O)c2ccco2)o1)Nc1ccc(OC(F)(F)F)cc1`, -52.6%.
Take `c1ccc(OCCCCN2CCOCC2)cc1`: the “hERG current change (%, negative = inhibition) at 10uM” value is -14.5%.
Consider `Cc1cc(C(=O)COc2ccc3ccc(=O)oc3c2)c(C)n1C`, for which the “hERG current change (%, negative = inhibition) at 10uM” value came to 17.3%.
The value for `CC1CCN(C(=O)c2[nH]cnc2C(=O)Nc2ccon2)CC1` was 2.81%; that for `COc1ccc(N2C(=O)CC(N3CCC(O)(c4ccc(Cl)cc4)CC3)C2=O)cc1` (stereo not shown) was -21.5%.
As for `CC1=CC2=NC(=O)/C(=C/c3cccn3Cc3ccccc3)C(=N)N2O1`, the figure is -14.1%.
As for `CCC(C)Sc1nnc(CNS(=O)(=O)c2ccc(F)cc2)n1C` (stereo not shown), the figure is 13.8%; as for `COc1ccc(-n2c(C)c(C)c3c(NCCCN(C)C)ncnc32)cc1`, -53.1%; as for `Cc1cc(S(=O)(=O)NCc2cccnc2)ccc1F`, -3.24%.
Regarding `CCCCN1C(=O)C(=O)N(CC(=O)NC2CCCc3ccccc32)C1=O` (stereo not shown), the “hERG current change (%, negative = inhibition) at 10uM” value was 21.1%.
As for `COC(=O)C1=C(c2c(C)noc2C)C[C@@H]2CC[C@H]1N2C(=O)N1CCCCC1`, the figure is 17.1%.
Consider `CC(=O)c1ccc(N2CCN(C(=O)C3CCCN3S(=O)(=O)c3cccc4nsnc34)CC2)cc1` (stereo not shown), for which the “hERG current change (%, negative = inhibition) at 10uM” value is recorded as -1.72%.

These data come from PMC4336329 (PLoS ONE, 2015).
